Measured values from PubChem BioAssay AID1508623 (National Center for Advancing Translational Sciences (NCATS), 2021).
Screen size: about 48,000 compounds; about 450 (0.94%) were called active. The shares of active, inactive and inconclusive entries below differ from those in the screen. Calls follow the shape of the dose curve; as a rule, active = well fitted inhibition curve with a large enough effect; inconclusive = small, poorly fitted or top-dose-only effect; inactive = no such curve, though single readings can be large or run the other way. Where the call is inconclusive, the potency comes from a doubtful curve fit.

Experiment: Primary qHTS for Identification of Small Molecule Inhibitors of Huntingtin Promoter Activity; also: nearly all actives have a fitted effect of over 50% in size
Conditions: HEK293 HTT promoter firefly luciferase reporter (activity 0% = vehicle and -100% = no light), 24 h; series mostly up to 57.5 µM
Method in brief: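 Firefly luciferase readout (Dual-Glo, 10 min RT) after 24 h, 37 °C compound exposure (final up to 57.5 uM) of HEK293 reporter cells cultured 24 h beforehand; PTC124 at 50 uM final as control inhibitor; activity scaled vehicle 0%, zero RLU -100%.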
Potency is read from the fitted curve at half-maximal effect; tags tell the direction and shape of the fitted curve.

Row | Compound | Potency
1 | CCN(CCCNC(=O)c1cc(Nc2ccc(OC)cc2OC)nc2ccccc12)c1cccc(C)c1 | inactive
2 | Cc1ccc(S(=O)(=O)C(CNC(=O)Cc2ccc(Cl)cc2)c2cccs2)cc1 (configuration not stated) | inconclusive: 35.5 µM [inhibitor, partial curve, poor fit]
3 | CC(C)C(=O)Nc1cccc(C(=O)Nc2nnc(CC(C)(C)C)s2)c1 | inconclusive: 10 µM [inhibitor, partial curve, poor fit]
4 | CCOC(=O)c1ccc(NC(=O)Cn2ncc3c(C)n(Cc4ccccc4F)c(C)c3c2=O)cc1 | inactive
5 | CC(C)c1ccc(NC(=O)Nc2csc3c2CCCC3)cc1 | inconclusive: 39.8 µM [inhibitor, single point]
6 | CCCCN(C)CC(O)Cn1cc(/C=C/C(=O)c2ccc(C)cc2)c2ccccc21 (configuration not stated) | inconclusive: 25.1 µM [inhibitor, partial curve, poor fit]
7 | COc1ccc(NC(=O)c2c(NCc3cccs3)sc3c2CCCC3)cc1 | inconclusive: 22.4 µM [inhibitor, partial curve, poor fit]
8 | CCOc1cccc(NC(=O)C2CC(=O)N(C)C(=Nc3ccc(F)cc3)S2)c1 (configuration not stated) | inconclusive: 31.6 µM [inhibitor, partial curve, poor fit]
9 | Cn1cc(C(c2ccccc2)c2ccc(Cl)s2)c2ccccc21 (configuration not stated) | inactive
10 | CC(C)C[C@H](NC(=O)[C@H](Cc1ccccc1)NC(=O)c1cnccn1)B(O)O | inconclusive: 0.0544 µM [inhibitor, full curve]
11 | CCOC(=O)c1c(C)oc2nc(C)nc(N3CCN(c4ccc(OC)cc4)CC3)c12 | inconclusive: 25.1 µM [inhibitor, single point]
12 | CCS(=O)(=O)c1ccccc1C(=O)N1CCN(c2nc3ccccc3s2)CC1 | active: 14.1 µM
13 | Cc1oc(-c2cccc(Cl)c2)nc1CSCC(=O)NCc1ccccc1Cl | inconclusive: 39.8 µM [inhibitor, single point]
14 | COCCNC(=O)c1ccc(-c2nc(CN3CCc4ccccc43)c(C)o2)cc1 | inconclusive: 39.8 µM [inhibitor, partial curve, poor fit]
15 | Cc1csc2nc(COC(=O)c3ccc(NC(=O)C(C)C)cc3)cc(=O)n12 | inconclusive: 20 µM [inhibitor, partial curve, poor fit]
16 | CC(CC(C#N)(c1ccccc1)C(C)C)N(C)C (configuration not stated) | inactive
17 | Cc1ccc(C(=O)Nc2ccc(Br)cc2)cc1S(=O)(=O)NCc1ccccc1 | inconclusive: 39.8 µM [inhibitor, single point]
18 | O=C1C(c2c(O)[nH]c3ccccc23)=Nc2ccccc21 | inactive
19 | O=C(c1cnc(N2CCCCC2)c2ccccc12)N1CCN(c2cccc(Cl)c2)CC1 | inconclusive: 17.8 µM [inhibitor, partial curve]
20 | COc1ccc(Cl)cc1C1CC(=O)Nc2cc3c(cc21)OCCO3 (configuration not stated) | inconclusive: 4.47 µM [inhibitor, partial curve]
21 | Cc1ccc(CN2C(=O)c3ccccc3Sc3ccc(C(=O)NC4CCCC4)cc32)cc1 | inconclusive: 39.8 µM [inhibitor, single point]

Row | Compound | Potency
22 | O=C(Cn1c(SCc2ccccc2F)nc2cccnc21)Nc1ccc(F)c(Cl)c1 | inconclusive: 39.8 µM [inhibitor, single point]
23 | Cc1ccc(C(=O)N2CCc3cc(CNC(=O)CCc4ccccc4)ccc32)cc1 | inconclusive: 31.6 µM [inhibitor, partial curve, poor fit]
24 | CS(=O)(=O)c1ccc(C(=O)Nc2ccc(Cl)c(-c3ccccn3)c2)c(Cl)c1 | inactive
25 | O=C(Nc1ccc(F)cc1)Nc1ccc2snnc2c1 | inconclusive: 39.8 µM [inhibitor, single point]
26 | COc1ccccc1NC(=O)CCn1cnc2onc(-c3ccc(F)cc3)c2c1=O | inconclusive: 39.8 µM [inhibitor, single point]
27 | CCCNC(=O)C1CCN(Cc2cc3ccccc3n2Cc2ccccc2)CC1 | inactive
28 | CCCCn1cc(S(=O)(=O)c2ccc(CC)cc2)c(=O)c2cc(F)c(N3CCOCC3)cc21 | inactive
29 | O=C1CN(C(=O)Nc2ccccc2Cl)C(c2ccccc2)c2c(sc3c2CCCC3)N1 (configuration not stated) | inconclusive: 22.4 µM [inhibitor, single point]
30 | Cc1nn(-c2ccccc2)c2c1N(CCCC(=O)NCc1ccccc1)C(=O)CS2 | inconclusive: 7.94 µM [inhibitor, partial curve, poor fit]
31 | CCc1cccc(NC(=O)c2oc3ccc4c(c3c2C)C(=O)CC(C)(C)O4)c1 | inconclusive: 15.8 µM [inhibitor, partial curve, poor fit]
32 | COc1cccc(CN2C(=O)C3(SCC(=O)N3c3ccc(C(C)C)cc3)c3ccccc32)c1 (configuration not stated) | inconclusive: 28.2 µM [inhibitor, single point]
33 | CCOc1ccc(C(=O)Nc2ccc3oc(-c4ccc(Br)cc4)nc3c2)cc1 | inactive
34 | O=C(c1ccc2c(c1)OCCO2)N(Cc1cccnc1)c1nc2c(F)cc(F)cc2s1 | inconclusive: 31.6 µM [inhibitor, single point]
35 | COc1ccc(N(CC(=O)Nc2cc(Cl)ccc2C)S(=O)(=O)c2c(C)noc2C)cc1 | inconclusive: 17.8 µM [inhibitor, partial curve, poor fit]
36 | Cc1cc(C(=O)Nc2cccc(F)c2)c2c(C)nn(-c3cccc(Cl)c3C)c2n1 | inconclusive: 28.2 µM [inhibitor, partial curve, poor fit]
37 | COc1ccc(CCNC(=O)c2nc(SCc3ccc(C)cc3)ncc2Cl)cc1OC | inconclusive: 35.5 µM [inhibitor, single point]
38 | CCOC(=O)N1CCC(=C2c3ccc(Cl)cc3CCc3cccnc32)CC1 | inconclusive: 28.2 µM [inhibitor, single point]
39 | O=C(Nc1ccc(C(F)(F)F)cc1)C1CCN(c2cnccn2)CC1 | inconclusive: 35.5 µM [inhibitor, single point]
40 | O=C(Nc1ccc(F)c(C(F)(F)F)c1)Nc1nnc(-c2ccncc2)s1 | inconclusive: 15.3 µM [inhibitor, partial curve]
41 | CCc1ccc(-n2c(SCc3ccccc3C)nc3[nH]ncc3c2=O)cc1 | inconclusive: 39.8 µM [inhibitor, single point]
42 | Cc1ccc(-c2nc(CS(=O)(=O)CC(=O)NCc3ccc(Cl)cc3)c(C)o2)cc1 | inactive

Row | Compound | Potency
43 | CCCN(C(=O)COc1cc(=O)n(CC)c2ccccc12)c1ccc(C(C)C)cc1 | inconclusive: 25.1 µM [inhibitor, partial curve, poor fit]
44 | CCOc1ccccc1NC(=O)c1c(NCc2cccs2)sc2c1CCCCC2 | inconclusive: 25.1 µM [inhibitor, single point]
45 | CCC(=O)N1CCc2cc(CNS(=O)(=O)c3ccc(NC(=O)CC(C)C)cc3)ccc21 | inconclusive: 35.5 µM [inhibitor, single point]
46 | O=C(NOCC1CC1)c1ccc(F)c(F)c1Nc1ccc(I)cc1Cl | inconclusive: 39.8 µM [inhibitor, single point]
47 | CC(C)(C)c1ccc(C2=NC(C)(C)N(CC(=O)Nc3ccc(F)c(F)c3)C2=O)cc1 | inactive
48 | CCOc1ccc(Nc2nc(C)c(NC(=O)c3ccc(C)cc3)c(Nc3ccc(OCC)cc3)n2)cc1 | inconclusive: 31.6 µM [inhibitor, single point]
49 | CCOC(=O)Cc1ccc(NC(=O)N2CCc3c(sc4c3CCCC4)C2c2ccc(F)cc2)cc1 (configuration not stated) | inconclusive: 39.8 µM [inhibitor, partial curve, poor fit]
50 | CCn1c(=O)c2cc(C(=O)N3CCN(c4cccc(OC)c4)CC3)sc2c2ccccc21 | inconclusive: 25.1 µM [inhibitor, partial curve]
51 | CCc1cccc(-n2nnc(-c3nsc(NC(=O)c4ccc(C)cc4)n3)c2C)c1 | inconclusive: 39.8 µM [inhibitor, single point]
52 | CCc1ccc(CNC(=O)CSc2c3c(nc4ccc(Cl)cc24)CCCC3)cc1 | inactive
53 | O=C(NCCn1cc(SCc2ccccc2F)c2ccccc21)c1cccs1 | inconclusive: 39.8 µM [inhibitor, single point]
54 | Cc1ccc2c(c1)C(c1ccccc1)N(C(=O)c1ccc(S(=O)(=O)N3CCCCC3)cc1)CC(=O)N2 (configuration not stated) | inconclusive: 28.2 µM [inhibitor, single point]
55 | O=C(NCc1ccc(F)cc1)c1ccc(CS(=O)Cc2ccc(Cl)cc2)o1 (configuration not stated) | inconclusive: 25.1 µM [inhibitor, single point]
56 | CCc1ccc(CNC(=O)C2CCCN(c3nnc(C)c4c(C)n(-c5ccc(OC)cc5)nc34)C2)cc1 (configuration not stated) | inconclusive: 39.8 µM [inhibitor, single point]
57 | Cc1cccc(C)c1NC(=O)CSc1ncc2c(n1)-c1ccc(Cl)cc1N(Cc1ccccc1)S2(=O)=O | inconclusive: 39.8 µM [inhibitor, single point]
58 | CC(C)c1ccc(NC(=O)C2CCCN(S(=O)(=O)c3cccc4nsnc34)C2)cc1 (configuration not stated) | inconclusive: 15.8 µM [inhibitor, partial curve, poor fit]
59 | CC(C)C[C@@H]1[C@H](c2ccccc2)OC(=O)N1CCCN1CCCCCC1 | inactive
60 | C/C(=C(\CCO)SS/C(CCO)=C(\C)N(C=O)Cc1cnc(C)nc1N)N(C=O)Cc1cnc(C)nc1N | inactive
61 | COc1cccc(-n2ccnc2SCC(=O)Nc2ccc(Cl)c(Cl)c2)c1 | inconclusive: 39.8 µM [inhibitor, single point]
62 | CSc1ccc(CCNC(=O)c2ccc3c(c2)nc2n3CCCCC2)cc1 | inconclusive: 22.4 µM [inhibitor, partial curve, poor fit]
